# Test results from ChEMBL document CHEMBL1157539, “Thousands of chemical starting points for antimalarial lead identification” (Nature, 2010).
# Over roughly 13,000 compounds, “IFI” has its median near 4; the highest 2% begin near 17. The list shows a part of the results.
# Assay: GSK_TCMDC: Inhibition Frequency Index (IFI). The number of non-kinase HTS assays where a compound showed > 50 % inhibition, expressed as a percentage of the number of such assays in which the compound was tested (-0 is zero)
# Assay type: functional
row,SMILES,IFI [%]
1,CCNCc1ccc(-c2cc3ncnc(Nc4ccc(OCc5cccc(F)c5)c(Cl)c4)c3s2)[nH]1,7.87
2,O=C(NCc1ccc(C(=O)NCc2cccc3ccccc23)cc1)c1ccc(O)c(-c2ccc(Cl)c(Cl)c2)c1,0.74
3,CCN(CCCN1CCCCC1)c1cc(C)nc(Nc2ccc(Br)cc2F)n1,3.75
4,O=C(Nc1ccc(Cl)c(C(F)(F)F)c1)c1ccc(C(=O)Nc2ccc(Cl)c(C(F)(F)F)c2)cc1,2.76
5,CCN(CC)S(=O)(=O)c1ccc(CCOCCCCCNCC(O)c2cc(Cl)c(N)c(Cl)c2)s1 (configuration not stated),14.8
6,OCC1CCN(Cc2cccc(C#Cc3cc4ncnc(Nc5ccc(OCc6cccc(F)c6)c(Cl)c5)c4s3)n2)CC1,6.3
7,COc1cccc(C=Cc2nc(=O)c3ccccc3o2)c1OC,1.5
8,O=C(Nc1ccc2c(c1)CCC2)c1ccc(N2CCN(c3ccncc3)CC2)cn1,13
9,CC(ON1C(N)=NC(N)=NC1(C)C)c1ccccc1 (configuration not stated),2.14
10,CCNc1cc(C(=O)NC(Cc2ccccc2)C(O)CNC(C)(C)CCCC(C)C)c(F)c(N2CCCS2(=O)=O)c1 (configuration not stated),2.16
11,O=C(Nc1ccc(-c2ccccc2)cc1)Nc1cccc(Cn2cnc(N3CCCNCC3)cc2=O)c1,3.6
12,O=C(/C=C/c1ccc(Cl)c(Cl)c1)N1CCC(CN2CCC(Cc3cc4ccccc4[nH]3)CC2)CC1,11.4
13,Clc1cccc(C=NNc2nc(=Nc3ccccc3)[nH]c(=Nc3ccccc3)[nH]2)c1,1.46
14,N#Cc1ccc(NC(=O)Nc2ccc(OC(F)(F)F)cc2)cc1,20.5
15,CN(Cc1cccc(O)c1)C1CCN(c2cc(NC(=O)c3ccc(F)cc3)ccn2)C1 (configuration not stated),2.63
16,CCCc1ccc(NC(=O)c2ccc(CN3CCCN(Cc4cccc(O)c4)CC3)cc2)cc1,13.8
17,Cc1ccc(C)c2sc(N(CCCn3ccnc3)C(=O)c3ccco3)nc12,6.12
18,CC(=O)Nc1cccc(NC(=O)CSc2ccc(-c3nc4ccccc4[nH]3)cn2)c1,5
19,O=C(c1cc2c(s1)-c1cccc(Cl)c1SC2)N1CCN(c2ccncc2)CC1,6.82

row,SMILES,IFI [%]
1,CNC(=O)C1Cc2c([nH]c3c(C)cccc23)C2(N1)C(=O)Nc1ccc(OC(F)(F)F)cc12 (configuration not stated),0.75
2,O=C(O)/C=C/c1cccc(F)c1F,2.16
3,COc1cc(Cc2cnc(N)nc2N)cc(OCCCC#N)c1OC,0.75
4,O=[N+]([O-])c1cccc(CNCC2CCN(Cc3ccc(O)cc3)CC2)c1,-0
5,CCOc1c(CNCCCNc2cc(O)c3ccccc3n2)cc(I)cc1OC,3.55
6,Cc1nc(Cl)c2c(-c3ccccc3)csc2n1,3.57
7,CN1CCN(c2ccc(Nc3ccnc4ccc(-c5ccccc5)cc34)cc2)CC1,6.43
8,COc1ccc2nccc([C@@H](O)CN3CCC(NC(=O)C(=O)c4c[nH]c5c(C)cccc45)CC3)c2c1,3.73
9,CN(C)CCOc1ccc(-n2c(-c3nonc3N)nc3cncc(-c4ccc(F)cc4)c32)cc1,3.55
10,N#CCOc1c(C2CCN(CCCCNC(=O)c3ccc(-c4ccc(C(F)(F)F)cc4)cc3)CC2)ccc2c1CCCC2,7.08
11,COc1ccc2cc(-c3nc(-c4c(Cl)cccc4Cl)[nH]c3-c3ccnc(NCCC4CCCN4C)c3)ccc2c1 (configuration not stated),11.3
12,O=C(Nc1ccc(Cl)cc1)c1ccc(CN2CCCN(Cc3cccc(O)c3)CC2)cc1,11
13,COc1ccc(-c2cc(C(F)(F)F)n3ncc(C(=O)Nc4cc(C)ccc4O)c3n2)cc1OC,1.44
14,CCCCN(Cc1cc(Cl)c(OCC)c(OC)c1)c1ccc(C(O)(C(F)(F)F)C(F)(F)F)cc1,6.38
15,OCCN1CCN(Cc2cccc(-c3ccc(-c4nc5cc(C(F)(F)F)ccc5[nH]4)cc3)c2)CC1,6.8
16,CC(=O)N(Cc1nc(-c2cc(C(F)(F)F)cc(C(F)(F)F)c2)cs1)c1c(C)cccc1C,0.69
17,Cc1nc2nc(N)nc(N)c2c(C)c1Cc1ccc(C(N)=O)cc1,0.73
18,COc1ccc(-c2cnc3ccc(NCc4ccc(F)cc4)nn23)cc1OC,7.81
19,COc1cccc2cc(C(=O)N[C@@H](CC(C)C)C(=O)Nc3cc(F)ccc3Br)oc12,1.79

row,SMILES,IFI [%]
1,O=C(Nc1ccc(Cl)cc1)OCCn1nnnc1C(c1ccc(Cl)cc1)N1CCOCC1 (configuration not stated),1.46
2,Cc1ccc(S(=O)(=O)NC2CCN(c3ccnc4cc(Cl)ccc34)C2)cc1 (configuration not stated),4.55
3,OC(CNCc1ccco1)Cn1c2ccc(Br)cc2c2cc(Br)ccc21 (configuration not stated),4.26
4,O=C(Nc1cccc(-c2nn3ccccc3c2-c2ccnc(Nc3ccc(-c4cc[nH]n4)cc3)n2)c1)c1c(F)cccc1F,7.81
5,COc1ccc2nccc([C@@H](O)CN3CCC(NC(=O)C(c4cc5ccccc5s4)N4CC(C)OC(C)C4)CC3)c2c1 (some centres not stated),-0
6,CCN(CC)CCCN(C(=O)c1cc2c(C)nn(-c3ccccc3)c2s1)c1nc(-c2ccc(OC)cc2)cs1,3.41
7,Oc1ccc(CCNc2nc(NCCCOc3cccc(-c4ccccc4)c3)nc(N3CCNCC3)n2)cc1,18.8
8,CN(C)Cc1ccc2cc(NC(=O)c3ccc(-c4ccc(Cl)cc4)cc3)ccc2c1,6.45
9,O=C(Nc1ccc2c(c1)CCC2)c1ccc(CN2CCCN(Cc3cccc(O)c3)CC2)cc1,10.3
10,COc1ccc(-c2ccc(CNCc3ccc(F)cc3)cc2)cc1S(=O)(=O)NCCN1CCCC1,7
11,O=C(NC1CCN(Cc2ccc3c(c2)OCCO3)CC1)c1ccc(-c2cccc(C(F)(F)F)c2)s1,22
12,CCCCCN1C(=O)N(c2ccc(Cl)c(Cl)c2)C(N(O)C(=O)Nc2ccc(Cl)c(Cl)c2)C1(C)C (configuration not stated),6.06
13,O=C(/C=C/c1ccc(Cl)c(Cl)c1)NCCCCCN1CCCN(C(=O)Nc2ccc(F)c(Cl)c2)CC1,6.04
14,Nc1ncc(-c2ccc3[nH]ccc3c2)c2ccc(-c3ccncc3)cc12,9.09
15,O=C(NCCCCN1CCC(c2ccc(OC(F)(F)F)cc2)CC1)c1ccc(NC(=O)c2ccc(Cl)cc2)cc1,1.52
16,COc1cccc(Nc2nnc(SCC(=O)NNC(=O)c3ccccn3)s2)c1,4.76
17,Oc1ccccc1CN1CCC2(CCCN(Cc3ccccc3F)C2)C1 (configuration not stated),4.65
18,CCCCCC(=O)N1CCOC(CCN2CCc3c(c4ccccc4n3C)C2)(c2ccc(Cl)c(Cl)c2)C1 (configuration not stated),3.57
19,Clc1ccc(CNCC2CCN(CC3CCCCC3)CC2)cc1Cl,0.69
